Data: the supplement of paper PMC7826260
This is one part of the list. Viral Rep nickase domains cut single-stranded DNA in vitro for 1 h at 37 °C with 3 µM enzyme; only the middle of the 90-letter strands is printed. A value is the log2 ratio of uncut reads to the pool without enzyme; more negative means more cut, near 0 not cut, and no call is made. Reads are scaled to the total; where an enzyme cuts many sequences, the uncut ones exceed 0.

Legend:
Experiment in all cases: uncleaved DNA left, log2 of reads against the no-enzyme library (log2 ratio); higher = less cleavage (more negative = more Rep cleavage of the k-mer); sequences stand for … in CTCGTCCG…ACCGGAGA
[1] = system: T1, Rep nickase domain of Muscovy duck circovirus
T1 sequence (residues 1-111, tag not shown): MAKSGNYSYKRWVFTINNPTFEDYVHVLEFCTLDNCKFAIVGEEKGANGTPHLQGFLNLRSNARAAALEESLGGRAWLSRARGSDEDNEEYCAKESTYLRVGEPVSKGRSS
Description: (§1)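 A pool of 90-nt single-stranded DNAs with seven random bases just before the constant AC of the nick site (name = the seven bases) was cut by 3 µM recombinant His6-SUMO-tagged Rep nickase domain (300 nM DNA, 50 mM HEPES pH 8.0, 50 mM NaCl, 1 mM MnCl2, 1 h, 37 °C, three replicates). Uncut DNA was amplified and sequenced.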

[2] = system: T2, Rep nickase domain of banana bunchy top virus
T2 sequence (residues 1-94, tag not shown): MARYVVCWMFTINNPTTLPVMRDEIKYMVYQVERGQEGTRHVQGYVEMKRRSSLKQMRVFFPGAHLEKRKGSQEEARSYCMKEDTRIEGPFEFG
Description: as §1

[3] = system: T3, Rep nickase domain of cabbage leaf curl virus
T3 sequence (residues 1-116, tag not shown): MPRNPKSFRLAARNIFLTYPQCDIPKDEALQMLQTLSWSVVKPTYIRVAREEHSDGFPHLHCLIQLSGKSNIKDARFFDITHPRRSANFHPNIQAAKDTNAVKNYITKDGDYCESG
Description: as §1

[4] = system: T4, Rep nickase domain of chickpea chlorotic dwarf virus
T4 sequence (residues 1-124, tag not shown): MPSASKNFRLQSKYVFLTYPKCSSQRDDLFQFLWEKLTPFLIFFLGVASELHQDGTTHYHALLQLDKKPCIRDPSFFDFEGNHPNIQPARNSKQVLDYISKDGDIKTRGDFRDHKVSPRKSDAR
Description: as §1

[5] = system: T5, Rep nickase domain of faba bean necrotic yellows virus
T5 sequence (residues 1-98, tag not shown): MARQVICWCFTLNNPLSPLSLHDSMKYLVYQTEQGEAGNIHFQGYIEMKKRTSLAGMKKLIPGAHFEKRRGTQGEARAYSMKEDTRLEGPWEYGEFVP
Description: as §1

[6] = system: T6, Rep nickase domain of maize striate mosaic virus
T6 sequence (residues 1-117, tag not shown): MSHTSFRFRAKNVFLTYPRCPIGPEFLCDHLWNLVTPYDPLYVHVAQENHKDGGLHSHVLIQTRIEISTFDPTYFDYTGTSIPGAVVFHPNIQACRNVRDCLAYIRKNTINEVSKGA
Description: as §1

[7] = system: T7, Rep nickase domain of porcine circovirus 2
T7 sequence (residues 2-116, tag not shown): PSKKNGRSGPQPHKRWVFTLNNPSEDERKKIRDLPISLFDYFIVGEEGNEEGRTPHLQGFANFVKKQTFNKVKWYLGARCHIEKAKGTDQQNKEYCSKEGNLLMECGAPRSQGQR
Description: as §1

[8] = system: T8, Rep nickase domain of tomato yellow leaf curl virus
T8 sequence (residues 1-136, tag not shown): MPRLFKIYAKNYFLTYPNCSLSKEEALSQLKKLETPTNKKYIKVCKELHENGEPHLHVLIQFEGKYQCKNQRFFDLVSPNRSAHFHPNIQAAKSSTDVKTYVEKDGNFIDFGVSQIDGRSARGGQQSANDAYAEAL
Description: as §1

[9] = system: T9, Rep nickase domain of wheat dwarf virus
T9 sequence (residues 1-137, tag not shown): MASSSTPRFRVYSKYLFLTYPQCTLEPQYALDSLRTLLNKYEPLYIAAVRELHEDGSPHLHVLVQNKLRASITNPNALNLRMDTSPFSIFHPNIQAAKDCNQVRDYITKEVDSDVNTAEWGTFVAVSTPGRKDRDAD
Description: as §1

Sequence	uncleaved DNA left (log2) [1]	uncleaved DNA left (log2) [2]	uncleaved DNA left (log2) [3]	uncleaved DNA left (log2) [4]	uncleaved DNA left (log2) [5]	uncleaved DNA left (log2) [6]	uncleaved DNA left (log2) [7]	uncleaved DNA left (log2) [8]	uncleaved DNA left (log2) [9]
TTTCTGT	-0.0291	-0.204	-0.1	-0.58	-0.121	-0.615	-0.214	-0.203	-0.122
CTGGGTC	0.0768	0.0328	0.453	0.573	-0.17	0.72	0.118	0.0138	-0.0409
TAGAGTG	0.0687	0.115	-0.0676	-0.0538	0.117	0.0614	0.0621	-0.0377	-0.0234
CAATCGC	-0.0116	0.014	-1.39	-1.59	0.000952	-1.32	0.0758	0.114	-0.138
CTGGCCA	0.0713	0.077	0.0694	0.0284	0.0315	0.173	-0.0137	0.0785	-0.0221
TGCTTGC	0.0816	0.0018	0.145	0.262	0.000373	0.0896	0.0713	0.0808	-0.0223
CTGCGCG	0.142	-0.105	-0.661	0.0299	0.0666	-0.845	0.187	0.0398	-0.00873
CCAGTGG	0.00814	-0.0766	-0.245	-0.279	-0.0741	-0.987	0.0209	0.0941	-0.0377
GCCTCAG	-0.0545	-0.158	-0.387	-0.384	-0.146	-0.896	0.0813	-0.0711	-0.0806
TTCATAC	-0.0325	-0.1	0.103	-0.791	0.0417	-0.462	-0.00315	0.038	-0.0484
GGGAAGA	0.0128	0.107	0.911	2.1	0.0575	2.25	0.309	0.036	0.125
GCGCAGA	0.109	0.0807	0.0298	0.557	0.106	0.353	0.254	0.0525	0.0885
CTAAGTT	0.0356	-0.143	-3.36	-2.96	-0.195	-1.42	-0.205	-0.0876	-1.45
GGTACGG	0.0136	-0.0203	0.486	1.59	-0.0435	2.09	0.0751	0.0286	0.0986
AATGCCC	-0.101	0.00551	-0.0353	0.0441	-0.0155	-0.18	-0.132	-0.0833	-0.0203
CGCGTTG	0.307	0.256	0.172	0.409	0.197	0.682	0.198	0.221	0.182
TCCCTTA	-0.0945	-0.0975	0.209	-0.804	-0.0345	-0.172	-0.331	-0.0472	-0.152
TTGTCCC	-0.0743	-0.0699	0.228	-0.00885	-0.0709	-0.116	-0.371	-0.0598	-0.0654
CGGAGGG	-0.0259	-0.0085	-0.14	0.281	0.0388	-0.366	0.0801	-0.032	-0.0517
GATGTAT	0.0692	-0.0426	0.252	0.638	0.0529	1.32	0.0402	-0.00513	0.128
TTGCGTC	-0.103	-0.135	-0.927	0.2	-0.0733	-0.714	0.0364	-0.116	-0.168
TACCGAG	0.21	0.0646	0.576	1.17	0.208	0.405	0.162	0.104	0.23
GCAATCC	0.0592	0.0801	-0.0839	0.315	0.0279	0.142	0.191	0.109	0.0502
TTCGACG	0.0169	-0.0631	-0.544	-0.513	-0.18	-0.99	-0.00595	-0.209	-0.228
ATCAACG	-0.0468	-0.0445	-0.945	-0.34	-0.036	-1.13	0.12	-0.201	-0.0366
ATTATTT	-0.81	-0.572	-0.0711	-2.69	-0.0422	-0.753	-3.45	-0.0238	-0.144
TCTATAC	-0.105	-0.201	0.0429	-0.706	-0.0577	-0.677	0.0561	-0.116	-0.155
TGAAGTC	-0.091	-0.122	-0.0538	-0.308	0.0714	-0.326	0.0255	-0.0516	-0.174
